Hit rate of the full screen: of about 310,000 compounds, about 14,000 (4.5%) showed an effect of 50% or more. Effects have a minus sign here. Some of the results follow.
Each compound was assayed against human ether-à-go-go-related gene (hERG) potassium channel (human, UniProt Q12809) (assay: primary screen, population patch clamp on CHO cells stably expressing hERG).
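Note: peak tail current of the secondary pulse compared with the same well before compound.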

human ether-à-go-go-related gene (hERG) potassium channel, sequence (Q12809 whole entry, looked up): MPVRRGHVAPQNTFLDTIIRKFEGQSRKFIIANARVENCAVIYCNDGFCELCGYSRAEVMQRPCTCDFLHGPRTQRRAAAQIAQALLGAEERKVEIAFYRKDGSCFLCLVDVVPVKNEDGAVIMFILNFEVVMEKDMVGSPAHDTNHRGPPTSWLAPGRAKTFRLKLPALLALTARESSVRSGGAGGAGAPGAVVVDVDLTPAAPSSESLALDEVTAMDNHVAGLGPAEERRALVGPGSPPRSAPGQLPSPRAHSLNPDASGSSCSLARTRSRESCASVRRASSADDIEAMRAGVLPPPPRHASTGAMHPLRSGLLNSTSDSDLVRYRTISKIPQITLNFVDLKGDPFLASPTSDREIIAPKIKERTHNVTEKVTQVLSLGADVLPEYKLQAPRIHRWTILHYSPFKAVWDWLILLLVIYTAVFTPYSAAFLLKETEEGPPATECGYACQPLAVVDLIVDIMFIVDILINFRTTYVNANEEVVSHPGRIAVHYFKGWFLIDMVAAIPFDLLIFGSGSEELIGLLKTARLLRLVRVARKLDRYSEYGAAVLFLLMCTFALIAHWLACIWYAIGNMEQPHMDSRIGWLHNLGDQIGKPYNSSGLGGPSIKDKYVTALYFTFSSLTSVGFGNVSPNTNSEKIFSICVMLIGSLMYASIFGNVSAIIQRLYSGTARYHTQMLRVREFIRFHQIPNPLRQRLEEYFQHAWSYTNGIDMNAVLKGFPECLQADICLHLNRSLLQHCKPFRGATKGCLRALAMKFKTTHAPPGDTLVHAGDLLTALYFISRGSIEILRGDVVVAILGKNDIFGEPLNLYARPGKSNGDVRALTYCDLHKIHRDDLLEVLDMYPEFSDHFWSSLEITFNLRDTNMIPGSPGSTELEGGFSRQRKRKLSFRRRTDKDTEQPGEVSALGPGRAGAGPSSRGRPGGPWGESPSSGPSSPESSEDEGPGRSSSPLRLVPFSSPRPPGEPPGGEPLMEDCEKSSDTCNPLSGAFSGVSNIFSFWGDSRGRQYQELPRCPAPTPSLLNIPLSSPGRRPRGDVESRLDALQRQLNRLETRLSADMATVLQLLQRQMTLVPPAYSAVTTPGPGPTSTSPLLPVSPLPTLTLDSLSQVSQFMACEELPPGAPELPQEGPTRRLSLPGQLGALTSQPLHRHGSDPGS

Row | SMILES | hERG current change (%, negative = inhibition) at 10uM [%]
1 | CC(=O)N1c2ccccc2CCc2ccc([N+](=O)[O-])cc21 | 2.5
2 | O=C1/C(=C/c2cccc(O)c2)SC(=S)N1CC1CCCO1 (stereo not drawn) | 5.14
3 | O=C(COC(=O)c1c2c(nc3ccccc13)/C(=C\c1cccs1)CCC2)Nc1ccccc1 | -9.7
4 | O=C(CN1C(=O)c2ccccc2S1(=O)=O)NCCSCc1ccco1 | -9.29
5 | CCOC(=O)c1ccc(NC(=O)c2c(C)[nH]c(C(=O)OCC)c2C)cc1 | -6.95
6 | OCc1nc(CO)n(Cc2ccccc2)n1 | -10.5
7 | COc1cc(NC(=O)COC(=O)C=C(C)C)c(C)cc1[N+](=O)[O-] | -2.51
8 | NS(=O)(=O)c1ccc(NC(=O)/C=C/c2ccco2)cc1 | 9.69
9 | O=C(O)c1nn(CC(=O)N2CCCCCC2)c(=O)c2ccccc12 | 2.16
10 | O=c1[nH]c(=O)n(CCC2=CCCCC2)c(O)c1C=NCc1cccnc1 | -6.53
11 | O=C(CSc1nnc(C2COc3ccccc3O2)o1)N1CCN(c2ccccc2)CC1 (stereo not drawn) | 8.03
12 | N#Cc1c(N2CCN(C(=O)c3ccco3)CC2)nc(-c2ccccc2)c2c1CCCC2 | -5.84
13 | CCCCCCn1cnc2c(oc3nc4c(cc32)CCCC4)c1=O | 5.16
14 | Cc1c(NC(=O)C2CCCCC2)cc(C(=O)N2CCOCC2)cc1[N+](=O)[O-] | -3.33
15 | CN1CC2([N+](=O)[O-])CC=C(Oc3ccccc3)C([N+](=O)[O-])(C1)C2 (stereo not drawn) | 4.85
16 | COc1ccc(NC(=O)CSc2nc3[nH]ncc3c(=O)[nH]2)cc1OC | 7.74
17 | O=C(c1cc2ccccc2o1)N(Cc1ccco1)Cc1cccs1 | -35.4
18 | COc1ccccc1CCN1CCCC(CN(C)CC(C)(C)CO)C1 (stereo not drawn) | -0.609
19 | O=C(Nc1ccccc1N1CCOCC1)C1(c2ccc(Cl)cc2)CCC1 | 13.4
20 | COc1ccc2[nH]c(=O)c(CN(C(=O)c3ccncc3)C(C)(C)C)cc2c1 | 11.8
21 | O=C(Oc1nsnc1N1CCCCC1)N1CCOCC1 | 15.5
22 | Nc1nnc(Cc2ccc(Cl)cc2)s1 | 3.36
23 | Cc1ccc(Cn2cccc2/C=N/NC(=S)Nc2ccc(C)cc2)cc1 | 14.7

Row | SMILES | hERG current change (%, negative = inhibition) at 10uM [%]
24 | COCCNC(=S)N/N=C(\C)c1ccc(C)c([N+](=O)[O-])c1 | -26.6
25 | Cn1c(N)c(C(=O)COC(=O)C2CCN(S(=O)(=O)c3cccs3)CC2)c(=O)n(C)c1=O | -35.2
26 | Cc1ccc(N2C(=O)c3ccccc3C2Nc2ccccc2F)nc1 (stereo not drawn) | 5.5
27 | Cc1cc(C)c(S(=O)(=O)N(C)CC(=O)N2CCCCC2)c(C)c1 | -13.7
28 | CCn1cc(/C=N\NC(=O)c2ccc(Cl)cc2)cn1 | -0.233
29 | O=C(Cc1cccs1)Nc1nnc(SCc2cccc3ccccc23)s1 | -7.66
30 | Nc1nc(N)nc(-c2ccccn2)n1 | 1.82
31 | CC1CCN(C(=O)CN2C(=O)C(C)(C)Oc3ccc(C(=O)NC(C)C)cc32)CC1 | -8.44
32 | O=C(CNC(=O)c1ccc([N+](=O)[O-])cc1)c1ccccc1 | -6.36
33 | C/C=C(\C)CN1CCC(Oc2ccc(C(=O)NCc3ccccn3)cc2)CC1 | 3.53
34 | Cc1ccc(N=C/C(C(=O)C(F)(F)F)=C(\O)c2cccs2)cc1 | 23.3
35 | CC(=O)c1c(C)oc2ccc(N(C(C)=O)S(=O)(=O)c3cccc([N+](=O)[O-])c3)cc12 | 8.76
36 | Cc1nn(-c2ccccc2)c(N2CCCC2)c1/C=C1\N=C(c2ccc(F)cc2)OC1=O | 10.6
37 | CS(=O)(=O)c1ccc2nc(NC(=O)C3CC(=O)N(c4ccc(F)cc4)C3)sc2c1 (stereo not drawn) | -7.42
38 | COc1cccc2c1OC1(C)CC2NC(=O)N1c1cccc(C(=O)Nc2ccc3c(c2)OCCO3)c1 (stereo not drawn) | 0.486
39 | O=C(NC1CCCCCCC1)C1=COCCO1 | 14.4
40 | NC(=O)C1CCN(c2cc(Cl)ccc2[N+](=O)[O-])CC1 | 3.89
41 | CC(C)(C)CC(=O)O/N=C(\N)c1ccncc1 | 7.32
42 | COC(=O)c1ccc(COc2ccccc2/C=N/NC(=O)c2cccnc2)cc1 | 28.7
43 | CCOC(=O)CC1ON(C)C(=O)N1c1ccc(Cl)cc1Cl (stereo not drawn) | -21.7
44 | CCc1c(O)nc(SCC(=O)c2ccccc2)n(-c2ccccc2)c1=O | 14.2
45 | COC(=O)C(C(=O)OC)=C(/C=C/N(C)C)N(C)C | 1.95
46 | CCOc1ccc(C(=O)NCc2cccs2)cc1 | -2.2

Row | SMILES | hERG current change (%, negative = inhibition) at 10uM [%]
47 | CCOC(=O)c1c(N)nn(C(=O)C(C)(C)C)c1-c1ccccc1 | 11.4
48 | COCCNS(=O)(=O)c1ccc(SC)cc1 | 10.2
49 | C=CCn1c(COc2ccccc2)nc2ccccc21 | -7.62
50 | Cc1cc(C(=O)OCC(=O)c2ccc(Cl)c([N+](=O)[O-])c2)c2cccc(C)c2n1 | 6.36
51 | COC(=O)c1sccc1NC(=O)c1ccco1 | 14.8
52 | Cc1nc2ccccc2c(=O)n1CC(=O)N1CCOCC1 | 6.19
53 | O=C(O)C[C@H]1c2cc(C(F)(F)F)ccc2S(=O)(=O)N1C1CCCCC1 | 30.3
54 | CC(C)(C)C(=O)CSc1ncccn1 | 36.3
55 | CN(C)CCCSc1ccccc1NC(=O)/C=C/c1ccccc1.Cl.O | -29.5
56 | Cc1ccc2c(c1)c1c3n2CCN(C(=O)C2CC2)C3CCC1 (stereo not drawn) | -17.1
57 | Cc1ccc(CNC(=O)CNC(=O)c2ccc(Br)o2)cc1 | 5.03
58 | CCOc1ccc(CCNC(=O)COc2cc(=O)n(C)c3ccccc23)cc1OCC | -16.7
59 | Cc1cc(C)cc(-n2c(O)c(C=NC3CCS(=O)(=O)C3)c3ccccc3c2=O)c1 (stereo not drawn) | -19.4
60 | COc1ccccc1CNCC(=O)Nc1ccc(N(C)C)cc1.O=C(O)C(=O)O | 11.4
61 | Cc1ccc(Cl)cc1N1CCN(C(=S)NCCc2ccccc2)CC1 | 19.7
62 | CCOC(=O)/C=c1\s/c(=C\c2ccccc2OC)c(=O)n1CC(=O)N1CCOCC1 | -3.88
63 | Cc1cc(C)c(C#N)c(SCc2ccccc2F)n1 | 21.2
64 | CCOC(=O)N1CCN(C(=O)Cn2ncc3ccccc32)CC1 | 8.94
65 | Cc1cccc(NC(=O)CSCC(=O)N=c2sccn2C)c1 | -20.2
66 | Cc1cc(=O)[nH]c(SCC(=O)NN(c2ccccc2)c2ccccc2)n1 | 0.845
67 | COc1cc2c(cc1OC)C(COc1ccccc1OC)N(C(=O)C(C)(C)C)CC2 (stereo not drawn) | -2.37
68 | COCC(=O)N1CCC(Oc2ccc(C(=O)N3CCCCC3COC)cc2)CC1 (stereo not drawn) | 16.8
69 | CCCCn1c(N)c(N(CC(C)C)C(=O)c2cccs2)c(=O)[nH]c1=O | 2.2

Row | SMILES | hERG current change (%, negative = inhibition) at 10uM [%]
70 | COc1ccc([N+](=O)[O-])cc1NC(=O)CSc1nc(C)cc(C)n1 | -5.69
71 | Cn1c(=O)c2[nH]c(N=NNc3ccccc3F)nc2n(C)c1=O | -4.08
72 | O=C1CCCC2=C1C(c1ccco1)Nc1ccc(C(=O)c3ccccc3)cc1N2 (stereo not drawn) | 6.94
73 | Nc1c(-c2ccccc2)cnc2ncnn12 | 4.56
74 | Cc1ccccc1-c1nn(-c2ccc(F)cc2F)cc1CNCCCO | -11.2
75 | Cc1oc(-c2ccc(Cl)cc2)nc1CS(=O)CC(=O)NCc1ccco1 (stereo not drawn) | -35.6
76 | O=C(Cn1cc(C(=S)N2CCOCC2)c2ccccc21)N1CCOCC1 | 17.8
77 | COc1ccc(/C=N/NC(=O)c2ccc(C)nc2)cc1O | 11.8
78 | COCCN1C(=O)C(=O)/C(=C(/O)c2cccc(S(=O)(=O)N(C)C)c2)C12C(=O)N(C)c1ccccc12 (stereo not drawn) | 3.81
79 | CCOc1ccc(NC(=O)C(=S)NC2CCCCC2)cc1 | -5.86
80 | CC1(C)C(=O)Nc2ccccc2N1C(=O)CSc1nnc2ccccn12 | 12.7
81 | C=CCn1c(SCC(=O)NC2CCS(=O)(=O)C2)nnc1-c1cc2c(s1)CCC(CC)C2 (stereo not drawn) | -15.8
82 | O=C(NCc1ccccc1)C1CCC(CNc2c(N3CCCCC3)c(=O)c2=O)CC1 (stereo not drawn) | 15.5
83 | Cc1ccc2oc(C(=O)N3CCC(O)(c4ccccc4)CC3)c(C)c2c1 | -11.2
84 | CC(C)CC(=O)OC1C(N2CCOCC2)c2c(ccc(/C=C/C(=O)N3CCOCC3)c2O)OC1(C)C (stereo not drawn) | -11.2
85 | CCc1cc2c(SCC(=O)c3ccc(C)cc3)ncnc2s1 | 9.65
86 | Cc1nn(C)c(C)c1S(=O)(=O)N1CCCC(C(=O)N2CCN(c3ccccc3)CC2)C1 (stereo not drawn) | -27.6
87 | CC1(C)CC(=O)c2cnc(NCC3CCCO3)nc2C1 (stereo not drawn) | 7.24
88 | COc1cccc(OC)c1C(=O)Nc1ccc2c(c1)CCCN2S(=O)(=O)c1ccc(C)cc1 | 12.8
89 | CN(C)NC(=S)Nc1cccc(Cl)c1 | 14.3
90 | COc1ccc(NS(=O)(=O)c2ccc(Br)s2)cc1OC | 2.93

Source: article PMC4336329 (PLoS ONE, 2015)
